{
  "source": "the BET-seq Pho4 binding data (Le et al. 2018)",
  "note": "The other results are listed elsewhere or left out. The energies were worked out here from pooled read counts, against the library average; single values are noisy.",
  "data": [
    {"target": "T1, Pho4 (S. cerevisiae) (UniProt P07270)", "T1 sequence": "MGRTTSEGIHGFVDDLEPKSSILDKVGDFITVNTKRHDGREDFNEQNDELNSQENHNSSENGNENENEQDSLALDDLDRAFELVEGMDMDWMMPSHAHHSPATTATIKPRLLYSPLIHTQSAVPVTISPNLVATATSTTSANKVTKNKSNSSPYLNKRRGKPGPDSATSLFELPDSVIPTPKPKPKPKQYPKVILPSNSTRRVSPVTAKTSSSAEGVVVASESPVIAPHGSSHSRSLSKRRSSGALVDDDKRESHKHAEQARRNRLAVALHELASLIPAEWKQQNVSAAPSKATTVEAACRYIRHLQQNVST", "assay": "relative binding free energy (BET-seq); higher = weaker binding", "conditions": "reference: library average", "units": {"relative binding free energy": "kcal/mol"}, "values": [
      {"sequence": "GAGGGCACGTGTAGGA", "relative binding free energy": -0.07},
      {"sequence": "AGCAGCACGTGTGTTT", "relative binding free energy": -0.02},
      {"sequence": "GTTTACACGTGTGAAT", "relative binding free energy": 0.23},
      {"sequence": "GAAGGCACGTGGACGG", "relative binding free energy": -0.06},
      {"sequence": "ATTATCACGTGGGTTT", "relative binding free energy": 0.01},
      {"sequence": "TTCAGCACGTGTGAAG", "relative binding free energy": 0.02},
      {"sequence": "TTTGACACGTGGTTCT", "relative binding free energy": -0.13},
      {"sequence": "TTATTCACGTGGGAAG", "relative binding free energy": 0.13},
      {"sequence": "TTTTACACGTGATCTT", "relative binding free energy": 0.14},
      {"sequence": "TTCGACACGTGTAGTA", "relative binding free energy": 0.07},
      {"sequence": "TTTAGCACGTGTAGGT", "relative binding free energy": -0.14},
      {"sequence": "TGGGGCACGTGGGATT", "relative binding free energy": -0.11},
      {"sequence": "GGTTACACGTGTATTA", "relative binding free energy": 0.08},
      {"sequence": "GTTTTCACGTGCGGGC", "relative binding free energy": 0.32},
      {"sequence": "GAAGTCACGTGGGCGT", "relative binding free energy": 0.11},
      {"sequence": "TTGTGCACGTGATGGT", "relative binding free energy": 0.14},
      {"sequence": "TTGTACACGTGCTGAA", "relative binding free energy": 0.1},
      {"sequence": "TGTAGCACGTGGATAA", "relative binding free energy": -0.07},
      {"sequence": "CTGAGCACGTGGTGTT", "relative binding free energy": -0.22},
      {"sequence": "TATATCACGTGCTGTA", "relative binding free energy": 0.14},
      {"sequence": "TGGTACACGTGTTTGC", "relative binding free energy": 0.08},
      {"sequence": "TTGGGCACGTGTAGGG", "relative binding free energy": 0.01},
      {"sequence": "TTGCGCACGTGCTTGT", "relative binding free energy": -0.18},
      {"sequence": "GGGGCCACGTGAAGGT", "relative binding free energy": 0.26},
      {"sequence": "TGTGCCACGTGAGTGA", "relative binding free energy": 0.07},
      {"sequence": "TTGTGCACGTGGTTCC", "relative binding free energy": 0.02},
      {"sequence": "AGTGTCACGTGTCATT", "relative binding free energy": 0.08},
      {"sequence": "AGCTGCACGTGGGGAT", "relative binding free energy": -0.06},
      {"sequence": "GTGGTCACGTGTAACA", "relative binding free energy": 0.31},
      {"sequence": "GTTATCACGTGTCTTT", "relative binding free energy": 0.14},
      {"sequence": "GCGTTCACGTGGTTGT", "relative binding free energy": 0.2},
      {"sequence": "TTGCACACGTGAGGAT", "relative binding free energy": 0.29},
      {"sequence": "GAATACACGTGGGAAG", "relative binding free energy": 0.11},
      {"sequence": "AAATGCACGTGTGCGT", "relative binding free energy": -0.05},
      {"sequence": "GTTTCCACGTGGTGTA", "relative binding free energy": -0.08},
      {"sequence": "AACGACACGTGGTTGT", "relative binding free energy": -0.05},
      {"sequence": "GTTTACACGTGGATGA", "relative binding free energy": 0.11},
      {"sequence": "GGATTCACGTGTTCGT", "relative binding free energy": 0.32},
      {"sequence": "TCATGCACGTGTGAGG", "relative binding free energy": 0.11},
      {"sequence": "GCGGTCACGTGGGGGT", "relative binding free energy": 0.04},
      {"sequence": "GTAGGCACGTGTGGGA", "relative binding free energy": 0.03},
      {"sequence": "GGGTCCACGTGATATT", "relative binding free energy": 0.26},
      {"sequence": "TTGAGCACGTGGGCTA", "relative binding free energy": -0.2},
      {"sequence": "CTGGGCACGTGAGGCT", "relative binding free energy": 0},
      {"sequence": "GTCGTCACGTGTTTAT", "relative binding free energy": 0.11},
      {"sequence": "AGTATCACGTGTTCTT", "relative binding free energy": 0.02},
      {"sequence": "CCATGCACGTGTAGGG", "relative binding free energy": -0.01},
      {"sequence": "TTGCTCACGTGAAAGT", "relative binding free energy": 0.35},
      {"sequence": "TTATTCACGTGGAAGC", "relative binding free energy": 0.49},
      {"sequence": "GAAATCACGTGTGTAT", "relative binding free energy": 0.14},
      {"sequence": "GTTGCCACGTGCGGGT", "relative binding free energy": -0.1},
      {"sequence": "ATTAACACGTGGTGTG", "relative binding free energy": -0.09},
      {"sequence": "TATGGCACGTGCATTG", "relative binding free energy": -0.09},
      {"sequence": "TGCGGCACGTGTGCGT", "relative binding free energy": -0.08},
      {"sequence": "GGTTTCACGTGGTGCA", "relative binding free energy": 0.2},
      {"sequence": "TGTGACACGTGAATTG", "relative binding free energy": 0.07},
      {"sequence": "TTGCTCACGTGGTAGA", "relative binding free energy": 0.21},
      {"sequence": "TACTTCACGTGGGTGC", "relative binding free energy": 0.18},
      {"sequence": "TAGTCCACGTGGGGTG", "relative binding free energy": -0.15},
      {"sequence": "TATAGCACGTGAGAGA", "relative binding free energy": 0.24},
      {"sequence": "GCGTACACGTGGTAGG", "relative binding free energy": -0.06},
      {"sequence": "TGTGGCACGTGGTTCG", "relative binding free energy": -0.11},
      {"sequence": "GAAGTCACGTGTTATA", "relative binding free energy": 0.18},
      {"sequence": "TGAAGCACGTGGCGGG", "relative binding free energy": -0.27},
      {"sequence": "GTTTGCACGTGAGATG", "relative binding free energy": 0.31},
      {"sequence": "TTTATCACGTGGAGAG", "relative binding free energy": 0.09},
      {"sequence": "GTTGGCACGTGGACTT", "relative binding free energy": -0.08},
      {"sequence": "GTGGTCACGTGGTCGT", "relative binding free energy": 0.07},
      {"sequence": "GTGCACACGTGTTTTA", "relative binding free energy": 0.05},
      {"sequence": "TGTGACACGTGAGGGC", "relative binding free energy": 0.15},
      {"sequence": "CTATTCACGTGTAGGA", "relative binding free energy": 0.2},
      {"sequence": "GATTTCACGTGGGGTG", "relative binding free energy": 0.22},
      {"sequence": "TGGATCACGTGGGGGC", "relative binding free energy": 0.01},
      {"sequence": "TATAGCACGTGGTGAG", "relative binding free energy": -0.14},
      {"sequence": "GATAGCACGTGGTTTG", "relative binding free energy": -0.08},
      {"sequence": "TAATGCACGTGGCGGA", "relative binding free energy": -0.18},
      {"sequence": "TTTCACACGTGGGAGA", "relative binding free energy": 0.05},
      {"sequence": "ATTAGCACGTGTGGAC", "relative binding free energy": -0.03},
      {"sequence": "TTTAACACGTGGATTC", "relative binding free energy": 0.02},
      {"sequence": "TCTTTCACGTGTGTGC", "relative binding free energy": 0.23},
      {"sequence": "AAGTTCACGTGGGATG", "relative binding free energy": 0.19},
      {"sequence": "TGGTACACGTGCGATG", "relative binding free energy": 0.04},
      {"sequence": "TGGTACACGTGCAAGT", "relative binding free energy": 0.26},
      {"sequence": "ATGCGCACGTGACGGT", "relative binding free energy": 0.11},
      {"sequence": "TTGTACACGTGAGGTA", "relative binding free energy": 0.29},
      {"sequence": "ATTTACACGTGGATAT", "relative binding free energy": 0.03},
      {"sequence": "CGATGCACGTGTGATG", "relative binding free energy": -0.1},
      {"sequence": "CTTTTCACGTGTGTCG", "relative binding free energy": 0.42},
      {"sequence": "TGAGACACGTGTAATG", "relative binding free energy": 0.14},
      {"sequence": "GGGTCCACGTGAGAGG", "relative binding free energy": 0.34},
      {"sequence": "TGTGGCACGTGATACG", "relative binding free energy": -0.07},
      {"sequence": "AGTTTCACGTGGGAAG", "relative binding free energy": 0.29},
      {"sequence": "TTCGTCACGTGGTTTC", "relative binding free energy": 0.02},
      {"sequence": "GTCTCCACGTGGGTGT", "relative binding free energy": -0.04},
      {"sequence": "TGGTTCACGTGGTCAC", "relative binding free energy": 0.33},
      {"sequence": "TTTTTCACGTGTGACT", "relative binding free energy": 0.29},
      {"sequence": "TGATACACGTGAAGGT", "relative binding free energy": 0.26},
      {"sequence": "GATATCACGTGATAGG", "relative binding free energy": 0.32},
      {"sequence": "CGGTTCACGTGTTTGC", "relative binding free energy": 0.19},
      {"sequence": "TAGGGCACGTGGATGC", "relative binding free energy": -0.09},
      {"sequence": "AGGGTCACGTGTCTTA", "relative binding free energy": 0.08},
      {"sequence": "TATTGCACGTGTTTGA", "relative binding free energy": -0.07},
      {"sequence": "GTTGCCACGTGTAGGT", "relative binding free energy": 0.05},
      {"sequence": "GTCTACACGTGGATGG", "relative binding free energy": 0.02},
      {"sequence": "GGAGGCACGTGGATCG", "relative binding free energy": -0.18},
      {"sequence": "ACTGTCACGTGTAGGG", "relative binding free energy": 0.05},
      {"sequence": "AAGTTCACGTGGAGGG", "relative binding free energy": 0.23},
      {"sequence": "TAAGTCACGTGTTTTT", "relative binding free energy": 0.08},
      {"sequence": "GCATGCACGTGAGGAG", "relative binding free energy": 0.25},
      {"sequence": "TATATCACGTGGTGTG", "relative binding free energy": 0.04},
      {"sequence": "ATGATCACGTGGCTGT", "relative binding free energy": -0.05},
      {"sequence": "GCCGTCACGTGTAGGT", "relative binding free energy": 0.09},
      {"sequence": "GGGGACACGTGTGCAA", "relative binding free energy": 0.19},
      {"sequence": "TAGAGCACGTGGGAGT", "relative binding free energy": -0.13},
      {"sequence": "CAGAGCACGTGGGCGG", "relative binding free energy": -0.25}
    ]}
  ]
}
